Measurements: article PMC10726135
The list shows a part of the results. At the low end of the ranking the order means little. Measured with an extract: partners may take part in the binding.

These sequences were tested against T1, HNF4alpha8 (COS-7 nuclear extract) (UniProt P41235-5) (assay: protein-binding microarray). Settings: COS-7 nuclear extract on double-stranded Agilent 4x180k PBM; binding buffer, salt, pH and temperature not given; high values mean tight binding; double strand, one strand shown; sequences stand for … in …GCCTAGGGAGATTAGAGTATCGGTCGA.
T1 sequence: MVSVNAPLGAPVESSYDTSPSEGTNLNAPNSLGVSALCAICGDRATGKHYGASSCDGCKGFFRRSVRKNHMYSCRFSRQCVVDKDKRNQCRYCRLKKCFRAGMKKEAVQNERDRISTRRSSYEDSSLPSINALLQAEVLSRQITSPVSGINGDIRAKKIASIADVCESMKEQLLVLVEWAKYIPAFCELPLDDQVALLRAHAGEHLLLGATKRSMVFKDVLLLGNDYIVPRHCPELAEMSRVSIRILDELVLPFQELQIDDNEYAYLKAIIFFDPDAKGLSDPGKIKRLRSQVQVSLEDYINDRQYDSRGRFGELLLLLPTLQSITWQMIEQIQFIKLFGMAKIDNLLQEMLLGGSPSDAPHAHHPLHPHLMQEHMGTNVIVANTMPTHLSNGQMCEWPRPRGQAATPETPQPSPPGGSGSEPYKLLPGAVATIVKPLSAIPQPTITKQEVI

Sequence | binding signal (log2 normalized intensity)
AGTTTGAACTTTGACTTATTTAGTAGTGGC | 4.66
TGAAAGCTGCTTCCCAGTTGCTCTGGAGTG | -1.28
ATGCTTCAGTGAGCCTTGACCTTCATGCTA | 2.91
GCTTCAGGAGTCCACTGTGTTCTTGTTTGC | 1.95
TGGGACTTAATCCTTGTCTGTTTGGCCTTA | 2.34
ACACAAAGACATTGCCTGGCATTATCAGTG | -1.12
TGTGTTGGCAAGAGATCTGCAGGGTTAAAT | 1.03
AGAGGGGGTTTGTTTTTTGCCCTTTGTACC | 8.63
GATTGGACTCTGCACTCCAGCCTGGGTGAC | 3.96
ATGTTGACCCGAGTGCCCTTTGGCAAACAG | 3.44
GATCTCCGTGTTTGGAATTGTGTCACTCCC | 1.65
CCACAGCAGAAGGCAACAGCTCTGGAGGAT | -1.31
GGCATAGTTGCATATCTGGAATTTCAAAGG | 1.45
CACAAGGAATGCCCTTATCTCCCAGCCACC | 1.75
AGTTGGTATTTAGTAAATATTAGGCAAGCT | -1.28
GCTCAAGCCTGTTCCGACCTTAGTACTCTG | 4.95
CATAACTCAGCGGGAGGCAAGATAAGGGTA | -1.27
CTCATTCTGATATGCACTGTCAGTTTTTCC | 1.32
TTGTACATGGGAATAGACATTCCAGAAATA | -0.386
CCTCTGTAGGGCAGCAGCCGGCCTCTTAAC | -1.35
CTGGAGGATAAAGTTCAAGTAGATAAAATC | 2.11
CTCTGATCCTAGTCTTTGCCCCACTGCAAG | 3.15
CTGACTAAAGTTCATTGCTTTGAGCATGAG | 2.19
GTGACTTGCTCAGTGTCACAGACTTAGCAC | 0.789

Sequence | binding signal (log2 normalized intensity)
CTTTGGAGGGAGCCAGGTTATGCAGAGCTT | -1.26
TCACCAGATACTGAATCTCCCAGTGCTTTG | -1.25
GTGTCTTATCTTCCTCTGGCATCTGGTCAG | 2.09
CAGTCAGTGAGACGTTCCAAACCGGTCTTT | 0.804
CTTTACCCCCATTTGGTAATGGGCCCCCAT | 4.85
GAAAAATGAATAACTTGAATTGATTGCCAA | -1.02
CCAGGTGGCTGCATCCTTCTCCTCCCCTCC | 3.45
TACAGCTCATTAATCATCCGTCACCCAGAC | -0.0904
AACGGCCCAGGGTTAGAGGATGACCTTCCC | 3.71
GTTGACCTTTAGTCTCTAGCCCCGCCCAGA | 5.33
TCAGTGTTTTCACTGCTGGGTTTCTTCCCT | 1.04
TGATTACCAGACAAGATCAATCAATTTACC | -1.2
CTTTCTAATCTCAAAGTGTCAGTCCAGAGT | 1.8
CGCTTGAGCCTGGGAGGCAAAGGTTGCAGT | 3.22
GGCGGGGAGAGGGAAGAGTCTTCTCTTGAC | -1.4
GATAAGAAAAACTGAGCTTTAGATAGCTGT | -1.26
CTGAAGTGGCCCAAGATGGAGATGAGAAAC | -1.24
ACATCCTGGGTTATGATCCTGGCTCTCCCA | -0.874
ATGGGGGCTCAGGGCCTCTCTTCTTGTAAT | 0.531
TCTGGTTTGACCTTAAGTCAGAAGAACTGA | 3.25
CTAAAACCCATATCTGACTGATGCTAAAGT | 0.684
AGCCTTTTGTCTGGTGGAGTAGAGCACATT | 0.578
AGGTCAGTCGACCCTCTCTGGATGCAGGTC | 1.47
TAATGAAATACCACTGCACACATAATAGAT | -1.3

Sequence | binding signal (log2 normalized intensity)
CATCCCACATTCCACAGACTCACTTCCAGA | -1.23
GGTCGGAAGGGAGGTGCCATGTCACCGCAC | -1.19
GACCCAAGAAATAAAAACAGCTGGGTTCCA | -1.39
TTGCCCCTTTGACCCTCGGGCCTCCCTAGA | 4.81
TTTCAGACTATTTTATTTTCCCCCTTTGAA | 3.99
GCAATATGATAACCCAGTGCAATGCCTAAA | -1.26
AAAACCACTGTGCTCTGAAAAGTGAACTGT | 2.69
CATGGTTTGCAAGACCTCTGAGAACTGGCC | 0.0358
CCCACCCCCAAATCCCCTTCAAGTCTGAGA | 5.01
TTCTTTCCCTCCAGCCCACTTACCACCCAC | 4.27
AATTTGACCTCATTTGCTCCCAGTGCACAC | 1.83
GGGAAACACAGACTCCAAAGAATGGAAGGC | -1.01
AGGGCAAGGGACAGGGGCCCAAGATAAAGG | -1.13
GTTGACCACCTGCCCCAGGAATGCCTTTTC | 1.87
CACTTCCCGAGTGAGGCAATGCCTCGCCCT | -0.664
ACCAAGGGTCATGCTGGTCTCCTTGCCCCA | 2.18
GGGTGGCCCTCTCCCGGGGAGGTCAACCAG | 3.41
AGAAGCCAGGGACCAGGAAGGCAGTAAGAG | -1.44
AAAAGGCCGTTCAAAGGCAGCCTTCGTTTG | -1.32
ACTGCACACCGTCCAGAGGCTCCAAAGGAC | -1.21
GCCACCCTCCTCTCTGGGTCAAAGGTCATC | 10.2
GGCAGGGCCAGATAAAGCAGGTTGTACCTT | 3.15
ATGATACCCCAGAGTACAGCACTTTGGCGT | 1.23
GTACTTAAAAATGCCTTTCATCTTTGAGAA | 0.583

Sequence | binding signal (log2 normalized intensity)
TTCATCATGATTGTAGCCAAACTCACAGCT | -0.412
ACTCAAGATAGAGGGCTGCCAAAGCTCACA | -1.31
AATACATAAAGTCCAAACCCCTATGTTTAA | 2.54
CTTCATCTTCAATACAGAGTCCAAATTCCT | 4.06
TGGACTAGGCAAAAGACAGTGATTGTCACA | -1.35
CCTGTTCAAACTAAACCTAAAGATTCTAAG | -1.27
GCCCTTTGGATTTAGGCAGTTTTTGATCAA | 2.5
AAGGAAGGTGGGGGCCGCCCATTGGGATCC | -1.37
AGAGATTAAAGGTCAAGCCCAACCAAAGTA | 4.65
GCGGGGCCTCCCAGTGGTATGCCTCTGGGT | -0.645
AGGGGTTAACCTCTATTGACCTTCTTATTT | 3.7
AGAGCAGGTGCTCGGTGAGTGCTTCTTGAA | -1.06
CCAGGGAACAAGGGGTGGATCTCTGTCATG | -1.01
CCTGCCCTTTGCTCCAGAGGAAGATATTAT | 2.04
GATAGATGCTGCTCTCCCACTCCCCCTGCT | 3.68
TGCTTCCAAGTTATGCAGACCTTTGCCCTT | 7.7
AAGTTTGGTAAGCAGACCCCTACTGGGGAT | -1.05
GGCCCCTCTCTTTTATTATATTGAATTCCT | 0.392
TCAGCAGGATTTGTTTGATTTAGGACTTAC | 1.55
CCGTCCCAAGCTGAGGTCTGGTGTCCAGTT | 1.21
GGATTAGCGATCATGGGTGACCCGTTAAGA | 1.44
